Test results published in PubChem BioAssay (NCI).
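Cultured in 96-well plates, cells were exposed to test compound for 48 hours across five concentrations. The concentration for 50% growth inhibition is given as GI50.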 Some entries of the source have several records that differ or are many. They are shown here; other results are not. An entry can have further records. For some of these results: Records of one sample usually come from different ranges of test concentrations, not given here; some values may only mark the edge of a range. For some of these results: Values given together are repeated measurements across runs, samples, wells, individuals or studies. A tag in brackets gives the origin of a value. Letters hold for one entry only.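 TGI is the concentration that stops growth completely.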

How the values were obtained:
Experiment in all cases: NCI-60 cell line screen, 48 h
CAKI-1 renal = test system: CAKI-1 renal
HOP-92 NSCLC = test system: HOP-92 NSCLC
KM20L2 colon = test system: KM20L2 colon
LOX IMVI melanoma = test system: LOX IMVI melanoma
MCF7 breast = test system: MCF7 breast
MDA-N = test system: MDA-N
NCI-H460 lung = test system: NCI-H460 lung
OVCAR-8 ovarian = test system: OVCAR-8 ovarian
SF-295 CNS = test system: SF-295 CNS
A549 NSCLC = test system: A549 NSCLC
BT-549 breast = test system: BT-549 breast
EKVX NSCLC = test system: EKVX NSCLC
HS 578T breast = test system: HS 578T breast
IGROV1 ovarian = test system: IGROV1 ovarian
NCI-H23 lung = test system: NCI-H23 lung
SF-268 CNS = test system: SF-268 CNS
SW-620 colon = test system: SW-620 colon
CCRF-CEM leukemia = test system: CCRF-CEM leukemia
COLO 205 colon = test system: COLO 205 colon
HCC-2998 colon = test system: HCC-2998 colon
HCT-116 colon = test system: HCT-116 colon
HCT-15 colon = test system: HCT-15 colon
HOP-62 NSCLC = test system: HOP-62 NSCLC
HT29 colon = test system: HT29 colon
M14 melanoma = test system: M14 melanoma
MDA-MB-231 breast = test system: MDA-MB-231 breast
MOLT-4 leukemia = test system: MOLT-4 leukemia
NCI-H226 lung = test system: NCI-H226 lung
NCI-H522 lung = test system: NCI-H522 lung
RPMI-8226 leukemia = test system: RPMI-8226 leukemia
RXF 393 renal = test system: RXF 393 renal
SNB-19 CNS = test system: SNB-19 CNS
SNB-75 CNS = test system: SNB-75 CNS
TK-10 renal = test system: TK-10 renal
U251 CNS = test system: U251 CNS
UACC-62 melanoma = test system: UACC-62 melanoma
UO-31 renal = test system: UO-31 renal
KM12 colon = test system: KM12 colon
NCI/ADR-RES ovarian = test system: NCI/ADR-RES ovarian
SF-539 CNS = test system: SF-539 CNS
SK-OV-3 ovarian = test system: SK-OV-3 ovarian
SK-MEL-5 melanoma = test system: SK-MEL-5 melanoma

In the case of `CCC1(OC(=O)CN)C(=O)OCc2c1cc1n(c2=O)Cc2cc3ccccc3nc2-1` (stereo not drawn), the TGI (CAKI-1 renal) is reported as 55.3 nM and 1.34 µM, the TGI (HOP-92 NSCLC) is reported as 676 nM and 9.18 µM and the TGI (KM20L2 colon) is reported as 690 nM and 38.6 µM. The TGI (LOX IMVI melanoma) was 135 nM and 1.56 µM, the TGI (MCF7 breast) was 416 nM and > 100 µM and the TGI (MDA-N) was 473 nM and > 100 µM. The TGI (NCI-H460 lung) was 528 nM and 25.8 nM, the TGI (OVCAR-8 ovarian) was 302 nM [mean of 2 tests] and > 25.7 µM [mean of 3 tests] and the TGI (SF-295 CNS) was 28.3 nM and 1.41 µM.

In the case of `COC(=O)CCNc1c2ccccc2nc2cccc([N+](=O)[O-])c12`, the GI50 (A549 NSCLC) is reported as 1 nM and 48.6 nM, the GI50 (BT-549 breast) is reported as 1.45 nM and 16.7 nM and the TGI (BT-549 breast) is reported as 7.9 nM and 102 nM. For the same molecule, the GI50 (EKVX NSCLC) was 1.07 nM and 31.1 nM, the TGI (EKVX NSCLC) was 7.85 nM and 146 nM and the GI50 (HS 578T breast) was 1.54 nM and 19.8 nM. The GI50 (IGROV1 ovarian) was 1.67 nM and 18.3 nM, the TGI (NCI-H23 lung) was 2.6 µM and 19.5 nM and the TGI (SF-268 CNS) was 4.26 nM and 141 nM. For the same molecule, the TGI (SF-295 CNS) was 26.3 nM and 480 nM and the TGI (SW-620 colon) was 1.9 nM and 79.2 nM.

With `CCCCCCCCCCCCCCCCOP(=O)([O-])OCC[N+](C)(C)C` the TGI (A549 NSCLC) was 65.5 µM [sample A] and 4.4 µM [sample B], the TGI (CCRF-CEM leukemia) was 28.3 µM [sample A, mean of 4 tests] and 2.7 µM [sample B, 1 test] and the TGI (COLO 205 colon) was 29 µM [sample A] and 1.5 µM [sample B]. For the same molecule, the TGI (HCC-2998 colon) was 25.4 µM [sample A] and 2.37 µM [sample B], the TGI (HCT-116 colon) was 44.3 µM [sample A] and 3.78 µM [sample B] and the TGI (HCT-15 colon) was 29.5 µM [sample A] and 2.42 µM [sample B]. For the same molecule, the TGI (HOP-62 NSCLC) was 36.8 µM [sample A] and 3.47 µM [sample B], the TGI (HT29 colon) was 37.7 µM [sample A] and 1.5 µM [sample B] and the TGI (LOX IMVI melanoma) was 55.3 µM [sample A] and 2.75 µM [sample B]. For the same molecule, the TGI (M14 melanoma) was 33.4 µM [sample A] and 3.2 µM [sample B], the TGI (MDA-MB-231 breast) was 41.9 µM [sample A] and 2.82 µM [sample B] and the TGI (MOLT-4 leukemia) was 31.3 µM [sample A] and 2.65 µM [sample B]. For the same molecule, the TGI (NCI-H226 lung) was 47.7 µM [sample A] and 3.18 µM [sample B], the TGI (NCI-H460 lung) was 22.3 µM [sample A] and 2.07 µM [sample B] and the TGI (NCI-H522 lung) was 43.2 µM [sample A] and 2.22 µM [sample B]. The TGI (RPMI-8226 leukemia) was 30.7 µM [sample A] and 1.89 µM [sample B], the TGI (RXF 393 renal) was 23.7 µM [sample A] and 1.83 µM [sample B] and the TGI (SNB-19 CNS) was 36.1 µM [sample A] and 2.58 µM [sample B]. The TGI (SNB-75 CNS) was 48.5 µM [sample A] and 4.3 µM [sample B], the TGI (TK-10 renal) was 6.6 µM [sample A] and 443 nM [sample B] and the TGI (U251 CNS) was 36.2 µM [sample A] and 2.22 µM [sample B]. The TGI (UACC-62 melanoma) was 49.9 µM [sample A] and 4.54 µM [sample B] and the TGI (UO-31 renal) was 47.4 µM [sample A] and 3.08 µM [sample B].

In the case of `Cc1c(N)nc(C(CC(N)=O)NCC(N)C(N)=O)nc1C(=O)NC(C(=O)NC(C)C(O)C(C)C(=O)NC(C(=O)NCCc1nc(-c2nc(C(=O)NCCCNC(C)c3ccccc3)cs2)cs1)C(C)O)C(OC1OC(CO)C(O)C(O)C1OC1OC(CO)C(O)C(OC(N)=O)C1O)c1cnc[nH]1` (stereo not drawn), the TGI (CAKI-1 renal) is reported as 1.41 µM and > 100 µM, the TGI (NCI-H460 lung) is reported as 8.13 µM and > 100 µM and the TGI (UO-31 renal) is reported as 4.7 µM and 81 µM.

For `COC(=O)Nc1nc2ccc(C(=O)c3ccccc3)cc2[nH]1`, the GI50 (HOP-92 NSCLC) was 8.31 µM [sample A, mean of 2 tests] and 390 nM [sample B, mean of 2 tests], the TGI (KM12 colon) was 2.09 µM [sample A, mean of 2 tests] and 29.4 µM [sample B, mean of 2 tests] and the TGI (NCI-H460 lung) was 3.89 µM [sample A, mean of 2 tests] and > 64.4 µM [sample B, mean of 2 tests]. For the same molecule, the TGI (NCI/ADR-RES ovarian) was > 100 µM [sample A, 1 test] and 2.2 µM [sample B, 1 test], the TGI (SF-539 CNS) was 699 nM [sample A, mean of 2 tests] and > 50.7 µM [sample B, mean of 2 tests] and the TGI (SK-OV-3 ovarian) was 65.4 µM [sample A, mean of 2 tests] and 3.46 µM [sample B, mean of 2 tests].

`CO[C@H]1C[C@](C)(O)Cc2cc3c(c(O)c21)C(=O)c1c(O)cc2c(c1C3=O)O[C@@H]1O[C@@]2(C)[C@H](O)[C@@H](N(C)C)[C@@H]1O` was tested, and the GI50 (IGROV1 ovarian) was 9.68 nM and 3.2 µM, the GI50 (NCI-H23 lung) was 647 nM [mean of 3 tests] and 9.51 nM [mean of 4 tests] and the GI50 (SK-MEL-5 melanoma) was 6.16 nM [mean of 3 tests] and 895 nM [mean of 4 tests]. The GI50 (SNB-75 CNS) was 1.54 µM [mean of 3 tests] and 7.2 nM [mean of 4 tests], the TGI (SNB-75 CNS) was 9.97 nM, 4.47 µM, 4.21 µM and the GI50 (UACC-62 melanoma) was 9.34 nM and 1.07 µM.
